In PubChem BioAssay AID1240 (Sanford-Burnham Center for Chemical Genomics, 2008):
The campaign covered roughly 50,000 compounds. About 800 (1.6%) showed an effect of 50% or more. This is one part of the list.

The molecules below were run against Bcl-2-like protein 10 (Homo sapiens) (UniProt Q9HD36) (assay: Phenotype converters, Bcl-B/TR3 peptide binding displacement, primary biochemical FP (AID 1240;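 further: 0% = Bcl-B with tracer peptide and DMSO and 100% = tracer peptide lacking Bcl-B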)). Conditions: GST-Bcl-B / FITC-TR3 peptide fluorescence polarization; stronger effect = higher value; compound at 3.75 mg/L.
UniProt Q9HD36, sequence (Q9HD36 whole entry, looked up): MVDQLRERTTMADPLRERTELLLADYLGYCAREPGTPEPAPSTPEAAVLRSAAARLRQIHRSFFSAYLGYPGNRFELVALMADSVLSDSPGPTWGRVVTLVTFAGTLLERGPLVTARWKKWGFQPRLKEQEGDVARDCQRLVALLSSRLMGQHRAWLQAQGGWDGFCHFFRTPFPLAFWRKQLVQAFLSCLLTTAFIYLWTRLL
In the case of `Cc1ccc(C)c(OCCCCN2CCCC2)c1C`, the displacement is reported as 18.4%. `CC1(C)Cc2ccccc2/C(=C(\C#N)C(=O)Nc2cccc([N+](=O)[O-])c2)N1` showed a displacement of 18.3%. For `CC(=O)C1=C(C)NC(c2ccccc2)NC1c1ccccc1` (stereo unspecified), the displacement was 4.5%. In the case of `Cc1ccc(C)c(OCC(O)CN2CCN(c3ccccc3)CC2)c1` (stereo unspecified), the displacement is reported as -4%. `COC(=O)c1ccc(/C=C2/SC(=O)N(CNc3ccc(OC)c(Cl)c3)C2=O)cc1` gave a displacement of -5.7%. For `O=C(c1ccc(Br)cc1)N1CCN(c2nc3ccc([N+](=O)[O-])cc3s2)CC1`, the displacement was 3.2%. For `CCOC(=O)c1sc(NC(=O)c2ccc(OC)c(OC)c2)c(C(N)=O)c1C`, the displacement was 6.3%. Work on `COc1ccccc1C/C(N)=N/OC(=O)COc1ccc(C(C)(C)C)cc1` yielded a displacement of -11.6%. `C=CCN1C(=O)C(=O)c2cc(Br)ccc21` gave a displacement of -3.8%. Molecule `CCOc1ccc(NC(=O)c2ccc(I)cc2)cc1` has a displacement of 9.1%. `COc1ccc(Br)cc1C(=O)Nc1ccc(-c2nc3cc(C)c(C)cc3o2)c(O)c1` showed a displacement of 0.9%. Work on `O=C(Nc1cc(NC(=O)C(F)(F)F)cc([N+](=O)[O-])c1)C(F)(F)F` yielded a displacement of -5.6%. For `COc1ccc2c(Cl)c(C(=O)N/N=C/c3ccccn3)sc2c1`, the displacement was 7.8%. `O=c1oc(-c2ccco2)nc2ccc(Br)cc12` showed a displacement of 10.4%. With `C=CCN1C(=O)/C(=C\c2cc(Br)ccc2OCCOc2cccc(OC)c2)SC1=S` the displacement was -43.6%. `Cc1ccc(N2C(=O)Cn3c2nc2c3c(=O)n(C)c(=O)n2C)cc1Cl` was tested, and the displacement was -12.5%. In the case of `CC(C)CN1C(=O)c2ccc(Oc3ccc([N+](=O)[O-])cc3)cc2C1=O`, the displacement is reported as 10%. In the case of `O=C(O)C1CC=CCC1C(=O)N1CCN(c2ccccc2)CC1` (stereo unspecified), the displacement is reported as 0.3%. Molecule `O=C(NC1Sc2ccccc2N=C1c1ccccc1)c1ccco1` (stereo unspecified) has a displacement of 5.4%. In the case of `NC(=S)N/N=C/c1cc2c(cc1[N+](=O)[O-])OCO2`, the displacement is reported as -4.6%. Work on `COc1ccccc1NC(=O)C(C)Oc1ccc(Cl)cc1C` (stereo unspecified) yielded a displacement of -1.3%. With `OCc1nc2ccccc2n1Cc1ccccc1F` the displacement was -0.5%. For `COc1cc2ccccc2cc1C(=O)Nc1ccc(Cl)cn1`, the displacement was 0.8%. `COc1ccccc1-c1coc2c(CN(C)C)c(O)ccc2c1=O` gave a displacement of 12.5%. Work on `Cc1ccccc1N1C(=O)C(O)=C(C(=O)/C=C/c2ccccc2)C1c1ccc([N+](=O)[O-])cc1` (stereo unspecified) yielded a displacement of -0.8%. Work on `COc1cc(C(O)C[N+](=O)[O-])ccc1OCc1ccccc1` (stereo unspecified) yielded a displacement of 8.7%. `Cc1ccc(/C=C/C(=O)NC(=S)Nc2ccc(S(=O)(=O)N=C(N)N)cc2)cc1` showed a displacement of 12.2%. `Cc1ccc(S(=O)(=O)NC(Cc2ccccc2)C(=O)Nc2nc3ccc(C)cc3s2)cc1` (stereo unspecified) showed a displacement of -5.1%. `COc1ccc(S(=O)(=O)N(CC(=O)Nc2ccc(C)cc2C)Cc2ccccc2)cc1OC` showed a displacement of -72.4%. Molecule `CN(C)c1ccc(-c2ncnn2-c2ccc(Cl)cc2)cc1` has a displacement of 0.1%. For `COc1cccc(-c2csc(/C(C#N)=C/c3ccc(C)o3)n2)c1`, the displacement was -113%. In the case of `Cc1ccc(OCCN2CCCC2)cc1C`, the displacement is reported as 1.6%. In the case of `Cc1nc(SCC(=O)Nc2nnc(-c3ccccc3)s2)n[nH]1`, the displacement is reported as 11.9%. `Cc1sc2nc(-c3ccc(OC(C)C)cc3)[nH]c(=O)c2c1C` showed a displacement of -12.7%. `C1CCc2sc3c(c2CC1)c1nnnn1c1nnnn31` gave a displacement of 12.2%. For `CCOC(=O)C1=C(O)/C(=C/c2ccc(F)cc2)SC1=Nc1ccccc1`, the displacement was -10.3%. In the case of `CCOc1ccc(C(=O)NCc2ccco2)cc1`, the displacement is reported as 9.8%. `COC(=O)C(C)Oc1cc2oc(=O)cc(-c3ccccc3)c2cc1Cl` (stereo unspecified) was tested, and the displacement was 10.3%. Molecule `CCOC(=O)c1c(C)nc2ccc(Cl)cc2c1-c1ccccc1` has a displacement of 11.8%. With `COc1ccc(CCNC(=O)CN(Cc2ccccc2)S(=O)(=O)c2ccc(OC)c(OC)c2)cc1` the displacement was -5.7%. Work on `O=C(NCC1CCCO1)c1nn2c(c1Cl)NC(c1cccs1)CC2C(F)(F)F` (stereo unspecified) yielded a displacement of -0.1%. `CC(=O)c1ccc(NC(=O)c2cc(=O)[nH]c3ccccc23)cc1` gave a displacement of 8.9%. With `CC(C)(CO)N=C1NS(=O)(=O)c2cc([N+](=O)[O-])ccc21` the displacement was -16.2%. `COc1ccccc1C(=O)O/N=C1/C(=O)N(C)c2ccccc21` showed a displacement of -10%. Molecule `COc1ccc(C2=NN(c3nc(-c4ccc(F)cc4)cs3)C(c3ccc(OC)cc3)C2)cc1` (stereo unspecified) has a displacement of 12%. With `COc1ccccc1OCCCOc1c(Cl)cccc1Cl` the displacement was 4.5%. `OC(COc1ccc(Br)cc1)Cn1cnc2ccccc21` (stereo unspecified) gave a displacement of -13.4%. With `CC(=O)Nc1ccc(C(=O)Nc2ccc(Br)cc2C)cc1` the displacement was -10.4%. Work on `CCOC(=O)c1c(-c2ccc(-c3ccccc3)cc2)csc1NC(=O)C1CC1` yielded a displacement of 9.6%. Molecule `O=[N+]([O-])c1ccccc1S(=O)(=O)NC1CCS(=O)(=O)C1` (stereo unspecified) has a displacement of 9.8%. `O=C1CC(c2ccc(Cl)c([N+](=O)[O-])c2)c2cc(Br)c3ccccc3c2N1` (stereo unspecified) gave a displacement of -3%. `COc1ccc(C(=O)/C=C/Nc2ccc(Br)c(Cl)c2)cc1` was tested, and the displacement was 11.8%. For `O=C(CCC1CCCC1)NC1CCCCCCC1`, the displacement was 0%. With `COC(=O)C1=C(C)NC2=C(C(=O)CCC2)C1c1ccc(Br)cc1` (stereo unspecified) the displacement was 6.2%. Work on `Cc1cc(Cl)ccc1NCC(=O)NN` yielded a displacement of -8.7%. For `O=C(CC1Sc2ccccc2NC1=O)Nc1ccccc1NC(=O)CC1Sc2ccccc2NC1=O` (stereo unspecified), the displacement was 9%. `COC(=O)C1=C(C)N(Cc2ccc(OC)cc2)C(=O)/C1=C\c1ccc([N+](=O)[O-])cc1` was tested, and the displacement was -37.1%. In the case of `O=C(CCN1C(=O)/C(=C\c2ccc(Cl)cc2)SC1=S)Nc1ccc(C(=O)O)cc1`, the displacement is reported as -10.5%. `Cc1ccc(C(=O)C(C(=O)C(=O)Nc2ccccc2)C(c2ccccc2)c2ccccc2)cc1` (stereo unspecified) gave a displacement of 14.7%. In the case of `O=C(COc1ccccc1)Nc1cccc(-c2nc3ccccc3[nH]2)c1`, the displacement is reported as 15.5%. Work on `Cc1csc(-c2cc3ccc(OCc4c(F)cccc4Cl)cc3oc2=O)n1` yielded a displacement of 9.8%. With `N=c1c2c3c(sc2nc2n1CCCCC2)CCCC3` the displacement was -4.8%. `COc1ccccc1NS(=O)(=O)c1ccc(Cl)c([N+](=O)[O-])c1` gave a displacement of 4.1%. `N/C(=N\OC(=O)c1cccc(Cl)c1)c1cccnc1` showed a displacement of -10.1%. Work on `CC1=CCCC(C)(C)C1C(=O)CC(C)Nc1ccccc1` (stereo unspecified) yielded a displacement of 9.2%. For `COc1ccccc1C(=O)N1CCN(Cc2cccnc2)CC1`, the displacement was -19.4%. Molecule `O=S(=O)(CCc1nc2ccccc2o1)c1ccc(Cl)cc1` has a displacement of 3.8%. `COc1ccc(/C=N/NS(=O)(=O)c2ccc(Cl)cc2)cc1` showed a displacement of 1.1%. For `O=C(Nc1nc(-c2cccs2)cs1)c1ccc(Cl)cc1Cl`, the displacement was 10.5%. In the case of `Cc1cccc(C(=O)Nc2ccc3nn(-c4ccc(F)cc4)nc3c2)c1`, the displacement is reported as -27.5%. With `NC(=O)CSc1nc(-c2ccccc2)c(-c2ccccc2)o1` the displacement was -7.3%. Work on `O=C(NCCOC(=O)c1ccc2c(c1)OCO2)c1cccnc1` yielded a displacement of 36.4%. For `Cc1cc(Nc2ccccc2)n2c(nc3ccccc32)c1C#N`, the displacement was -2.8%. In the case of `Cc1ccc(-c2ccccc2)n1-c1ccc2c(c1)OCO2`, the displacement is reported as -4.9%. `COc1cccc(-c2nc(-c3ccc(Cl)cc3Cl)no2)c1` was tested, and the displacement was 4.5%. For `N/C(=N\OC(=O)c1ccccc1[N+](=O)[O-])c1ccc(Cl)cc1`, the displacement was -6%. `O=C(COc1ccc(Cl)cc1Br)NNC(=O)c1ccccc1F` gave a displacement of -8.7%. Work on `COC(=O)CN1C(=O)/C(=C\c2ccc(Cl)cc2)SC1=S` yielded a displacement of -8%. `Cc1ccccc1-c1nc2sc3c(c2c(=O)o1)CCCC3` was tested, and the displacement was 11.3%. For `C=CCOc1cccc(/C=N/NC(=O)C(=O)NCc2cccnc2)c1`, the displacement was 3.8%. With `COc1cc(C(=O)N2CCN(C3CCC(c4ccccc4)CC3)CC2)cc(OC)c1OC` (stereo unspecified) the displacement was -13.1%. `CC(=O)C1=C(O)C(=O)N(CC2CCCO2)C1c1ccccc1[N+](=O)[O-]` (stereo unspecified) was tested, and the displacement was 6.3%. In the case of `CCOc1ccc(/C=C/C(=O)N(C)Cc2ccccc2)cc1OC`, the displacement is reported as 16.4%. `CC(=O)n1c2ccccc2c2nc3ccc([N+](=O)[O-])cc3cc21` was tested, and the displacement was 15.4%. Molecule `O=C(O)CCN1C(=O)/C(=C2\C(=O)N(Cc3ccccc3Cl)c3ccccc32)SC1=S` has a displacement of -1.3%. `O=C(COC(=O)c1ccco1)c1ccc(Cl)cc1` showed a displacement of -1%. In the case of `COc1ccc(CC(C)CC(=O)NCCc2ccc(OC)c(OC)c2)cc1` (stereo unspecified), the displacement is reported as 9%. With `CCOC(=O)c1c[nH]c2ccc(Br)cc2c1=O` the displacement was -10.2%. `Cc1ccc(Cl)cc1N(Cc1ccc(C(=O)NCc2ccco2)cc1)S(=O)(=O)c1ccccc1` showed a displacement of 0.5%. `Cc1ccc(C2(CC(=O)O)CCOC(C)(C)C2)cc1` (stereo unspecified) was tested, and the displacement was -6.5%. `O=C1C2C(c3ccccc3)OC3(C(=O)c4ccccc4C3=O)C2C(=O)N1c1cccc(Cl)c1` (stereo unspecified) showed a displacement of -4.8%. With `Cc1cc(C=C2C(=O)N(C)C(=O)N(C)C2=O)c(C)n1C` the displacement was 14.1%. Molecule `O=c1[nH]c(=S)[nH]c(O)c1C=Nc1cc(Cl)ccc1O` has a displacement of 3.2%. In the case of `c1ccc(-c2cc(-c3ccccc3)n(-c3ncn[nH]3)n2)cc1`, the displacement is reported as 7.9%. `CCOc1ccc(C(=O)Nc2ccc3oc(-c4ccccc4F)nc3c2)cc1Cl` was tested, and the displacement was 12.4%. `CCOc1ccc(NC(=O)CSc2nc3ccccc3[nH]2)cc1` was tested, and the displacement was 11.9%. Work on `COC(=O)CCC(=O)NNC(=O)c1ccc(Cl)cc1Cl` yielded a displacement of -14.9%. For `Cc1ccc(C(=O)Nc2ccc(NC(=O)c3ccc(Br)cc3)cc2)cc1`, the displacement was 10.9%. `S=c1[nH]nc(-c2ccc(Cl)cc2Cl)n1-c1ccccc1` gave a displacement of -28.5%. `COC(=O)C(c1ccccc1)c1ccccc1` showed a displacement of 5.8%. Work on `CC(C)COc1ccc(C(=O)N/C(=C/c2ccc3c(c2)OCO3)C(=O)O)cc1` yielded a displacement of -0.6%. `NNC(=O)COc1ccc(Oc2ccccc2)cc1` gave a displacement of -11.4%. `Cc1ccsc1/C=C(\C#N)c1nc(-c2cc3cc(Br)ccc3oc2=O)cs1` gave a displacement of -10.8%. With `Cc1ccc2[nH]c(O)c(N=NC(=O)c3cc4ccccc4nc3C)c2c1` the displacement was 5.5%. `N#CCCN(C1CCCCC1)S(=O)(=O)c1ccc(Cl)cc1` gave a displacement of -0.7%. Molecule `O=C(Cc1ccc(F)cc1F)Nc1ccc(I)cc1` has a displacement of 13.7%. Work on `O=C1c2ccccc2C(=O)N1CCN1CCc2ccccc21` yielded a displacement of -10.4%. Molecule `Cc1ccc(OCC(=O)NCc2ccncc2)c(C)c1` has a displacement of -4.5%. `Cc1cc(C)cc(NC(=O)CCC(=O)O)c1` gave a displacement of -13.5%. For `COC(=O)c1ccc(C(=O)OC)c(NC(=O)CN2C(=O)c3ccccc3C2=O)c1`, the displacement was 6.2%. For `CC1(C)CC(N2CN(C3CC(C)(C)NC(C)(C)C3)CN(C3CC(C)(C)NC(C)(C)C3)C2)CC(C)(C)N1`, the displacement was 2.8%.
